# Values joined by “and” are separate entries in the source; they are usually repeats but may differ in a detail not shown here. Equal entries are not always repeated. Among all 360,000 compounds or so, about 2,600 (0.72%) were called active. Inconclusive results, whose numbers are uncertain, are shown with a selection of clear calls. Calls follow the shape of the dose curve; as a rule, active = well fitted inhibition curve with a large enough effect; inconclusive = small, poorly fitted or top-dose-only effect; inactive = no such curve, though single readings can be large or run the other way. Where the call is inconclusive, the potency comes from a doubtful curve fit.
# Test: Primary qHTS for Inhibitors of ATXN expression; also: nearly all actives have a fitted effect of over 55% in size
# Conditions: HEK-293 ATXN2-luciferase reporter, luminescence, 24 h; series mostly up to 57 µM
# Procedure, shortened: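 ATXN2-luciferase reporter cells (luciferase flanked by upstream and downstream ATXN2 gene portions) were treated 24 h at 37 °C with compounds at up to 57 uM. SteadyGlo luminescence gave expression; GF-AFC fluorescence gave viability.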
# Potency is read from the fitted curve at half-maximal effect; tags tell the direction and shape of the fitted curve.
row,SMILES,Potency
1,O=C(O)c1cccc(S(=O)(=O)N(Cc2ccccc2)c2cccc(C(F)(F)F)c2)c1,inactive
2,CCc1ccc(NS(=O)(=O)c2ccc3[nH]cc(C(=O)NC4CCCC4)c(=O)c3c2)cc1,"inconclusive: 39.8 µM [inhibitor, single point]"
3,CC(C)CCNC(=O)CN1C(=O)COc2ccc(S(=O)(=O)N3CCOCC3)cc21,inactive
4,O=C(CCN1CCN(c2ccccc2)CC1)Nc1ccccc1F,inactive
5,C/C(O)=c1/ccc2cccc3nc(C)nc1c23,inactive
6,O=C(c1ccc(COc2ccccc2Cl)o1)N1CCN(Cc2ccc3c(c2)OCO3)CC1,"inconclusive: 25.1 µM [inhibitor, partial curve, poor fit]"
7,Fc1ccccc1OCCCCN1CCCCC1,inactive
8,Cc1ccc(NC(=O)C(=O)NCC(c2cccnc2)N2CCN(C)CC2)cc1C (centres undefined),inactive
9,COc1cc(C(=O)NC(=S)NC(C)C)cc(OC)c1OC,inactive
10,Cc1ccc(C)c(N2CCN(c3ncnc4onc(C)c34)CC2)c1,"inconclusive: 3.16 µM [inhibitor, partial curve, poor fit]"
11,CCC(NC(=O)Nc1nnc(C(F)(F)F)s1)(C(F)(F)F)C(F)(F)F,active: 8.91 µM
12,COc1cccc(/C=N/Nc2nc(Nc3ccc([N+](=O)[O-])cc3)nc(N3CCCC3)n2)c1O,"inconclusive: 10 µM [inhibitor, partial curve, poor fit]"
13,CC(=O)NCCc1nc2ccccc2n1CCCCOc1ccc(Cl)cc1,"inconclusive: 25.1 µM [inhibitor, partial curve, poor fit]"
14,Cc1ccc(-c2cc(-c3ccc(Cl)cc3)c(C#N)c(N)n2)o1,inactive
15,COc1ccc(/C=C/C2=CC(C)(C)NC(=S)N2)c(OC)c1,"inconclusive: 39.8 µM [inhibitor, partial curve, poor fit]"
16,O=C(CSc1nc2cc3ccccc3cc2[nH]1)Nc1cccc(C(F)(F)F)c1,inactive
17,CCn1cc(CN2CCC(C(=O)Nc3cccc(-c4cccc(Cl)c4)c3)CC2)c(C)n1,"inconclusive: 35.5 µM [inhibitor, single point]"
18,C=CCNc1nc(-c2ccccn2)nnc1-c1ccccc1,"inconclusive: 31.6 µM [inhibitor, single point]"
19,Cc1ccccc1OCC(=O)OCC(=O)Nc1ncc(Cl)c(C)c1Cl,inactive
20,Nc1nc(=S)c2[nH]cnc2[nH]1,"active: 3.98 µM and inconclusive: 6.85 µM [inhibitor, full curve] and inconclusive: 3.98 µM [inhibitor, full curve]"
21,CCN(CC(=O)Nc1cccc(OC)c1)CC(=O)Nc1ccc(Br)c(C)c1,"inconclusive: 25.1 µM [inhibitor, single point]"
22,Cc1cc(N2CCCCC2)nc2ccc(NC(=O)c3ccc(F)cc3)cc12,"inconclusive: 11.2 µM [inhibitor, partial curve, poor fit]"

row,SMILES,Potency
1,CCCCC(=O)Nc1ccc2c(c1)nc(CCNC(=O)c1ccco1)n2C,inactive
2,CCN1C(=O)[C@H]2[C@@H](c3ccc(-c4ccc(Cl)c(Cl)c4)cc3)N3CCCC[C@@]3(C(=O)OC)[C@H]2C1=O,"inconclusive: 39.8 µM [inhibitor, partial curve, poor fit]"
3,CC(C)(C)c1ccc(OCCC(=O)Nc2cccc(S(=O)(=O)N3CCCCC3)c2)cc1,inactive
4,CCN(CC)c1ccc(SS(=O)(=O)O)cc1,inactive
5,COc1ccc(C(c2nnnn2CC2CCCO2)N2CCN(c3ccccc3)CC2)cc1 (centres undefined),"inconclusive: 39.8 µM [inhibitor, partial curve, poor fit]"
6,CC(NCC(O)COc1ccc(Br)cc1)c1ccccc1 (centres undefined),"inconclusive: 10 µM [inhibitor, partial curve, poor fit]"
7,CN1CCN(C2=C(NS(=O)(=O)c3cccs3)C(=O)c3ccccc3C2=O)CC1,"inconclusive: 11.2 µM [inhibitor, partial curve]"
8,CNS(=O)(=O)c1cccc(C(=O)NCC(c2cccs2)N(C)C)c1 (centres undefined),inactive
9,COc1cc(CNc2nc(C)c([N+](=O)[O-])c(C)c2C#N)cc(OC)c1,inactive
10,CCc1nc(SCC(=O)N2CCCC2)c2ccccc2n1,inactive
11,C=CCOC(=O)C1=C[C@@H](c2ccccc2)[C@H](CCCO)[C@@H](OCC)O1,"inconclusive: 25.1 µM [inhibitor, partial curve, poor fit]"
12,CN(C)c1ccc(/C=C2\Oc3ccc(C#Cc4cccc(N)c4)cc3C2=O)cc1,inactive
13,COc1ccccc1NC(=O)C1CCCN(c2ncnc3c2nc2n3CCCCC2)C1 (centres undefined),"inconclusive: 39.8 µM [inhibitor, partial curve, poor fit]"
14,O=C(N/N=C\c1c(O)ccc2ccccc12)c1cncc(Br)c1,"inconclusive: 3.16 µM [inhibitor, single point]"
15,COc1cccc(CNC(=O)[C@@H]2CCCN2C(=O)[C@H]2CCCCN2C(=O)c2ccccc2)c1,inactive
16,CC(=O)c1ccc(NS(=O)(=O)c2ccc3[nH]c4c(c3c2)CCCCCC4)cc1,"inconclusive: 31.6 µM [inhibitor, partial curve, poor fit]"
17,Oc1ccc(C[C@H]2CNC(=S)N2CC2CCCN2C[C@H](Cc2ccc(O)cc2)N2C[C@H](Cc3ccccc3)N(CC3CCCCC3)C2=S)cc1 (some centres undefined),"inconclusive: 28.2 µM [inhibitor, single point]"
18,O=[N+]([O-])c1cccc(-c2ccc(/C=N/n3c(-c4ccccc4)n[nH]c3=S)o2)c1,"inconclusive: 20 µM [inhibitor, partial curve, poor fit]"
19,Cc1ccccc1NC(=O)c1c(C)[nH]c(=S)c(C#N)c1-c1ccco1,inactive
20,CCCCNc1oc(-c2ccc(COc3ccccc3C)o2)nc1C#N,"inconclusive: 17.8 µM [inhibitor, partial curve, poor fit]"
21,COCCN(Cc1ccccc1)C(=O)c1cccc(S(=O)(=O)N2CCN(c3ccccc3)CC2)c1,inactive
22,CCCCN1CCCc2cc(CN(CCCN3CCOCC3)C(=O)Nc3ccc(CC)cc3)ccc21,inactive
